# Test results as given in the supplement of paper PMC8728848.
# Some of the results follow.
# B1: Gal 7 (Canis lupus) (protein)
# chain: MAGSSNVPHKTSLPEGIRVGTVMRIRGVVPNKAGRFYVNLLCGEAPGSEAALHFNPRLDESTVVFNTLEQGAWGREERGTGIPFQRGQPFDVLLIATDEGFKAVVGDSEYHHFRYRIPPARVRLLEVGGDLQLESVSVF
# Assays:
# Assay in all cases: glycan array binding signal (z-score within array); higher = stronger binding
# Settings in all cases: glycan notation: IUPAC condensed, linker removed
# Gal(b1-3)GalNAc = molecular target: Gal(b1-3)GalNAc
# Summary of the method: (§1)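 From the Consortium for Functional Glycomics database, 3228 arrays were curated, keeping only those whose protein sequence was available. Binding is given as a within-array Z-score averaged across arrays sharing a protein sequence and across linkers. Negative Z-scores can be read as non-binding.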
# [1] = molecular target: Gal(b1-3)GalNAc(a1-3)[Fuc(a1-2)]Gal(b1-4)Glc
# Summary of the method: as §1
# [2] = molecular target: Gal(b1-3)GalNAc(a1-3)[Fuc(a1-2)]Gal(b1-4)GlcNAc
# Summary of the method: as §1
# [3] = molecular target: Gal(b1-3)GalNAc(b1-3)Gal(a1-4)Gal(b1-4)Glc
# Summary of the method: as §1
# [4] = molecular target: Gal(b1-3)GalNAc(b1-4)Gal(b1-4)Glc
# Summary of the method: as §1
# [5] = molecular target: Gal(b1-3)GalNAc(b1-4)[Neu5Ac(a2-3)]Gal(b1-4)Glc
# Summary of the method: as §1
# Gal(b1-3)GlcNAc = molecular target: Gal(b1-3)GlcNAc
# Summary of the method: as §1
# [6] = molecular target: Gal(b1-3)GlcNAc(a1-6)Gal(b1-4)GlcNAc
# Summary of the method: as §1
# [7] = molecular target: Gal(b1-3)GlcNAc(b1-2)Man(a1-3)[Gal(b1-3)GlcNAc(b1-2)Man(a1-6)]Man(b1-4)GlcNAc(b1-4)GlcNAc
# Summary of the method: as §1
# [8] = molecular target: Gal(b1-3)GlcNAc(b1-2)Man(a1-3)[Gal(b1-3)GlcNAc(b1-2)Man(a1-6)]Man(b1-4)GlcNAc(b1-4)[Fuc(a1-6)]GlcNAc
# Summary of the method: as §1
# [9] = molecular target: Gal(b1-3)GlcNAc(b1-2)[Gal(b1-3)GlcNAc(b1-6)]Man(a1-6)[Gal(b1-3)GlcNAc(b1-2)Man(a1-3)]Man(b1-4)GlcNAc(b1-4)GlcNAc
# Summary of the method: as §1
# [10] = molecular target: Gal(b1-3)GlcNAc(b1-3)Gal(b1-3)GlcNAc
# Summary of the method: as §1
# [11] = molecular target: Gal(b1-3)GlcNAc(b1-3)Gal(b1-4)Glc
# Summary of the method: as §1
# [12] = molecular target: Gal(b1-3)GlcNAc(b1-3)Gal(b1-4)GlcNAc
# Summary of the method: as §1
# [13] = molecular target: Gal(b1-3)GlcNAc(b1-3)Gal(b1-4)GlcNAc(b1-6)[Gal(b1-3)GlcNAc(b1-3)]Gal(b1-4)Glc
# Summary of the method: as §1
# [14] = molecular target: Gal(b1-3)GlcNAc(b1-3)Gal(b1-4)[Fuc(a1-3)]GlcNAc(b1-6)[Gal(b1-3)GlcNAc(b1-3)]Gal(b1-4)Glc
# Summary of the method: as §1
# [15] = molecular target: Gal(b1-3)GlcNAc(b1-3)GalNAc
# Summary of the method: as §1
# [16] = molecular target: Gal(b1-3)GlcNAc(b1-6)Gal(b1-4)GlcNAc
# Summary of the method: as §1
# [17] = molecular target: Gal(b1-3)[Fuc(a1-4)]GlcNAc
# Summary of the method: as §1
# [18] = molecular target: Gal(b1-3)[Fuc(a1-4)]GlcNAc(b1-2)Man(a1-3)[Gal(b1-3)[Fuc(a1-4)]GlcNAc(b1-2)Man(a1-6)]Man(b1-4)GlcNAc(b1-4)GlcNAc
# Summary of the method: as §1
# [19] = molecular target: Gal(b1-3)[Fuc(a1-4)]GlcNAc(b1-2)Man(a1-3)[Gal(b1-3)[Fuc(a1-4)]GlcNAc(b1-2)Man(a1-6)]Man(b1-4)GlcNAc(b1-4)[Fuc(a1-6)]GlcNAc
# Summary of the method: as §1
# [20] = molecular target: Gal(b1-3)[Fuc(a1-4)]GlcNAc(b1-3)Gal(b1-3)[Fuc(a1-4)]GlcNAc
# Summary of the method: as §1
# [21] = molecular target: Gal(b1-3)[Fuc(a1-4)]GlcNAc(b1-3)Gal(b1-4)GlcNAc
# Summary of the method: as §1
# [22] = molecular target: Gal(b1-3)[Fuc(a1-4)]GlcNAc(b1-3)Gal(b1-4)[Fuc(a1-3)]GlcNAc
# Summary of the method: as §1
# [23] = molecular target: Gal(b1-3)[GlcNAc(b1-6)]GalNAc
# Summary of the method: as §1
# [24] = molecular target: Gal(b1-3)[Neu5Ac(a2-6)]GalNAc
# Summary of the method: as §1
# [25] = molecular target: Gal(b1-3)[Neu5Ac(a2-6)]GlcNAc(b1-6)Gal(b1-4)Glc
# Summary of the method: as §1
# [26] = molecular target: Gal(b1-3)[Neu5Ac(b2-6)]GalNAc
# Summary of the method: as §1
# Gal(b1-4)Gal = molecular target: Gal(b1-4)Gal
# Summary of the method: as §1
# [27] = molecular target: Gal(b1-4)GalNAc(a1-3)[Fuc(a1-2)]Gal(b1-4)GlcNAc
# Summary of the method: as §1
# [28] = molecular target: Gal(b1-4)GalNAc(b1-3)[Fuc(a1-2)]Gal(b1-4)GlcNAc
# Summary of the method: as §1
# Gal(b1-4)Glc = molecular target: Gal(b1-4)Glc
# Summary of the method: as §1
# Gal(b1-4)Glc6S = molecular target: Gal(b1-4)Glc6S
# Summary of the method: as §1
# Gal(b1-4)GlcNAc = molecular target: Gal(b1-4)GlcNAc
# Summary of the method: as §1
# [29] = molecular target: Gal(b1-4)GlcNAc(a1-6)Gal(b1-4)GlcNAc
# Summary of the method: as §1
# [30] = molecular target: Gal(b1-4)GlcNAc(b1-2)Man(a1-3)Man(b1-4)GlcNAc(b1-4)GlcNAc
# Summary of the method: as §1
# [31] = molecular target: Gal(b1-4)GlcNAc(b1-2)Man(a1-3)[Gal(b1-4)GlcNAc(b1-2)Man(a1-6)]Man(b1-4)GlcNAc(b1-4)GlcNAc
# Summary of the method: as §1
# [32] = molecular target: Gal(b1-4)GlcNAc(b1-2)Man(a1-3)[Gal(b1-4)GlcNAc(b1-2)Man(a1-6)]Man(b1-4)GlcNAc(b1-4)[Fuc(a1-6)]GlcNAc
# Summary of the method: as §1
# [33] = molecular target: Gal(b1-4)GlcNAc(b1-2)Man(a1-3)[Gal(b1-4)GlcNAc(b1-2)][GlcNAc(b1-4)]Man(b1-4)GlcNAc(b1-4)GlcNAc
# Summary of the method: as §1
# [34] = molecular target: Gal(b1-4)GlcNAc(b1-2)Man(a1-3)[GlcNAc(b1-2)Man(a1-6)]Man(b1-4)GlcNAc(b1-4)GlcNAc
# Summary of the method: as §1
# [35] = molecular target: Gal(b1-4)GlcNAc(b1-2)Man(a1-3)[Man(a1-6)]Man(b1-4)GlcNAc(b1-4)GlcNAc
# Summary of the method: as §1
# [36] = molecular target: Gal(b1-4)GlcNAc(b1-2)Man(a1-6)Man(b1-4)GlcNAc(b1-4)GlcNAc
# Summary of the method: as §1
# [37] = molecular target: Gal(b1-4)GlcNAc(b1-2)Man(a1-6)[GlcNAc(b1-2)Man(a1-3)]Man(b1-4)GlcNAc(b1-4)GlcNAc
# Summary of the method: as §1
# [38] = molecular target: Gal(b1-4)GlcNAc(b1-2)Man(a1-6)[Man(a1-3)]Man(b1-4)GlcNAc(b1-4)GlcNAc
# Summary of the method: as §1
# [39] = molecular target: Gal(b1-4)GlcNAc(b1-2)[Gal(b1-4)GlcNAc(b1-4)]Man(a1-3)[Gal(b1-4)GlcNAc(b1-2)Man(a1-6)]Man(b1-4)GlcNAc(b1-4)GlcNAc
# Summary of the method: as §1
binder,measurement,setting,value
B1,glycan array binding signal (z-score),Gal(b1-3)GalNAc,-0.209
same,glycan array binding signal (z-score),[1],0.252
same,glycan array binding signal (z-score),[2],0.753
same,glycan array binding signal (z-score),[3],-0.204
same,glycan array binding signal (z-score),[4],-0.215
same,glycan array binding signal (z-score),[5],-0.152
same,glycan array binding signal (z-score),Gal(b1-3)GlcNAc,-0.165
same,glycan array binding signal (z-score),[6],-0.199
same,glycan array binding signal (z-score),[7],-0.08
same,glycan array binding signal (z-score),[8],-0.145
same,glycan array binding signal (z-score),[9],-0.061
same,glycan array binding signal (z-score),[10],0.463
same,glycan array binding signal (z-score),[11],0.044
same,glycan array binding signal (z-score),[12],0.155
same,glycan array binding signal (z-score),[13],1.49
same,glycan array binding signal (z-score),[14],0.487
same,glycan array binding signal (z-score),[15],-0.194
same,glycan array binding signal (z-score),[16],-0.093
same,glycan array binding signal (z-score),[17],-0.208
same,glycan array binding signal (z-score),[18],-0.166
same,glycan array binding signal (z-score),[19],-0.199
same,glycan array binding signal (z-score),[20],-0.219
same,glycan array binding signal (z-score),[21],-0.147
same,glycan array binding signal (z-score),[22],-0.211
same,glycan array binding signal (z-score),[23],-0.214
same,glycan array binding signal (z-score),[24],-0.206
same,glycan array binding signal (z-score),[25],-0.206
same,glycan array binding signal (z-score),[26],-0.196
same,glycan array binding signal (z-score),Gal(b1-4)Gal,-0.177
same,glycan array binding signal (z-score),[27],0.063
same,glycan array binding signal (z-score),[28],-0.208
same,glycan array binding signal (z-score),Gal(b1-4)Glc,-0.206
same,glycan array binding signal (z-score),Gal(b1-4)Glc6S,-0.202
same,glycan array binding signal (z-score),Gal(b1-4)GlcNAc,-0.21
same,glycan array binding signal (z-score),[29],-0.207
same,glycan array binding signal (z-score),[30],-0.173
same,glycan array binding signal (z-score),[31],-0.103
same,glycan array binding signal (z-score),[32],-0.074
same,glycan array binding signal (z-score),[33],-0.187
same,glycan array binding signal (z-score),[34],-0.198
same,glycan array binding signal (z-score),[35],-0.175
same,glycan array binding signal (z-score),[36],-0.214
same,glycan array binding signal (z-score),[37],-0.189
same,glycan array binding signal (z-score),[38],-0.197
same,glycan array binding signal (z-score),[39],0.093
